Measurements as given in PubChem BioAssay AID488969 (Vanderbilt High Throughput Screening Facility, 2010).
Whole data set: some 110,000 compounds, median “z-score” near -0.1, cut for the highest 2% near 2. The list shows a part of the results. Activity calls are given as the source filed them.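 The calls were made as follows: active = z-score in the third read window above 3 or below -3; inactive = the rest.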

target: Metabotropic glutamate receptor 8 (Rattus norvegicus) (UniProt P70579); test: mGluR8 Gi/Go-coupled signaling modulation – cell-based, rat, thallium flux, HTS, primary screen (AID 488969); conditions: HEK293 rat mGluR8, GIRK (G protein-gated inwardly rectifying potassium channel) thallium flux, FluoZin2; at 10 µM; stronger effect = higher value; submaximal glutamate (EC20) added with thallium
UniProt P70579, sequence (P70579 whole entry, looked up): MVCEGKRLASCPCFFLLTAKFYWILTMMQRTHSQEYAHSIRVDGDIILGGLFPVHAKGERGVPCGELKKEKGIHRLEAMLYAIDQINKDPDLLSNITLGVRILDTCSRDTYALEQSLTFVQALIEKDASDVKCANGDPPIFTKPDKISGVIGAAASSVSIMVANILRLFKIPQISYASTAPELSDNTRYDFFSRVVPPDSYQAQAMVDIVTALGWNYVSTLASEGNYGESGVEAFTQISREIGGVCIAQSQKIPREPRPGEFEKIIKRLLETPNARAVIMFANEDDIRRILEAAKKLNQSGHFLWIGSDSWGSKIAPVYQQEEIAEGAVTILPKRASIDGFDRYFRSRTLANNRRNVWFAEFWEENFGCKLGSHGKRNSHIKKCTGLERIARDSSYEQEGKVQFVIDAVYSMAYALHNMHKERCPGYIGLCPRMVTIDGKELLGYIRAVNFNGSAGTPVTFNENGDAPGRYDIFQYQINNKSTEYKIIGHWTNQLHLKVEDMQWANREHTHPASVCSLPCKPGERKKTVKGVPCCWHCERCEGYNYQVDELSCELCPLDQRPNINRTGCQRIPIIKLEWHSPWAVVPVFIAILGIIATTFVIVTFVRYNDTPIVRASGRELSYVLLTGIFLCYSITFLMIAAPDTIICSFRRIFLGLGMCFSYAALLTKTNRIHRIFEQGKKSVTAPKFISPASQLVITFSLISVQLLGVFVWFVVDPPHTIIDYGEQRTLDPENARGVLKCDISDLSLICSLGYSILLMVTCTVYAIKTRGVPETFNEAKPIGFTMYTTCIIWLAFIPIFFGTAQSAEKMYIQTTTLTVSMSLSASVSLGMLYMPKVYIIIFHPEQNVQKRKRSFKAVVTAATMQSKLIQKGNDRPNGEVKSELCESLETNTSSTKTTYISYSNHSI

Structure (SMILES) | z-score
COc1cc(OC)c(C2N(c3ccccn3)C(=O)C3CCCN32)cc1OC (stereo not given) | 0.314
COc1cccc(NC(=O)C2c3cc(OC)c(OC)cc3C(=O)N(C)C2c2cccnc2)c1 (stereo not given) | -0.0359
CS(=O)(=O)N1CCc2cc(-c3csc(NC(=O)C(c4ccccc4)c4ccccc4)n3)ccc21 | 0.0668
CCN(C(=O)COC(=O)c1n[nH]c2ccccc12)C1CCS(=O)(=O)C1 (stereo not given) | -0.0797
CCCc1cc(-c2n[nH]c(C(=O)OCC)c2-c2cscn2)c(O)cc1O | -0.373
COc1ccc(-c2nnc(NC(=O)C(C)C)o2)cc1 | 2.14
COc1ccc(C(CCNCc2ccccc2)c2ccc(F)cc2)cc1 (stereo not given) | 1.8
COc1cc(C(=O)N2CCN(c3cc(Cl)ccc3Cl)CC2)cc(OC)c1OC | -0.5
O=C1CC(N(CCc2ccccc2)C(=S)Nc2ccccc2)C(=O)N1c1ccccc1 (stereo not given) | 0.57
CC1(C)CC2(CC(C)(C(=O)CSc3nc4ccccc4s3)OC2=O)C(=O)O1 (stereo not given) | 0.026
O=C(NCc1nc2ccccc2[nH]1)c1cccc(S(=O)(=O)N2CCCC2)c1 | 2.4
CCCNc1ncnc2sc(C)c(C)c12 | -1.21
COc1ccc(/C=C/C(=O)Oc2ccc(/C=N/NC(=O)COc3c(C)cccc3C)cc2)cc1 | -1.68
Cn1cccc1C(=O)NS(=O)(=O)c1ccccc1Cl | 0.983
O=C(Nc1cccc(C(F)(F)F)c1)c1cc(-c2cccs2)on1 | -0.52
CC(C)CC1N=C2c3ccccc3N=C(SCc3cc(=O)n4ccccc4n3)N2C1=O (stereo not given) | -0.382
Cn1nc(C(=O)NC2CCCCCC2)ccc1=O | 1.32
CCNC(=S)Nc1cccc(Cl)c1C | 0.0976
C/C(=N/NC(=O)C1CCN(S(=O)(=O)c2ccc(C)cc2)CC1)c1cccc([N+](=O)[O-])c1 | -0.0465
Cc1ccc(N(C(=O)Cc2c[nH]c3ccccc23)C(C(=O)NC2CCCCC2)c2ccco2)cc1 (stereo not given) | -0.0196
CCCCSc1nnc(CSc2nc3nc(C)cc(C)n3n2)o1 | -0.473
CC(C)CCNC(=O)[C@@H](NC(=O)c1c(F)cccc1F)C(C)C | -0.0578

Structure (SMILES) | z-score
CCN(CC)C(=O)CCNS(=O)(=O)c1ccc(C)cc1 | 0.0788
CCOC(=O)c1c(C)[nH]c(C2=NNC(=Nc3ccccc3)SC2)c1C | 0.0151
C=CCNc1nc(Nc2ccc(-c3nc4ccccc4o3)cc2)nc(N2CCOCC2)n1 | 0.132
CC(Oc1ccc(Cl)cc1Cl)C(=O)NCc1ccncc1 (stereo not given) | -0.474
c1ccc2c(c1)oc1c(Nc3ccc4c(c3)OCCO4)ncnc12 | -0.257
O=C(COc1ccc(S(=O)(=O)N2CCCCC2)cc1)NCc1cccnc1 | 0.103
COc1cccc(C2/C(=C(\O)c3ccc4c(c3)OCCO4)C(=O)C(=O)N2CCN(C)C)c1 (stereo not given) | 0.625
CC(OC(=O)C1CCC(=O)N1)C(=O)Nc1cc(Cl)cc(Cl)c1 (stereo not given) | -0.0373
Cn1c(=O)c2c(nc(Br)n2CCSc2nc3ccccc3o2)n(C)c1=O | -0.0753
O=C(Oc1ccccc1N1C(=O)C2CCCCC2C1=O)c1ccccc1F (stereo not given) | -0.195
CCCCCn1nc(C)c(/C=N\NC(=O)c2cc(C)oc2C)c1C | -0.235
CCn1c(CSc2nc3ccccc3s2)nc2ccccc21 | -0.855
Cc1ccccc1N(C(=O)Cn1nnc(-c2cccs2)n1)C(C(=O)NCCC(C)C)c1ccco1 (stereo not given) | -1.03
O=C(CSc1nnnn1-c1cccc(Cl)c1)Nc1ccc2c(c1)CCC2 | -0.0138
N#Cc1c(NC(=O)CN2CCCCC2)sc2c1CCC2 | 0.71
O=C(Cc1ccccc1)Nc1ccccc1Sc1ccccc1 | -0.00777
O=C(CNC(=S)N(Cc1ccccc1)Cc1cccnc1)NC1CC1 | 0.186
CC1(C)CC(=O)C=C(Nc2ccc(S(N)(=O)=O)cc2)C1 | -0.0534
COCCn1c(C)cc(C(=O)COC(=O)c2ccc(N3CCCC3=O)cc2)c1C | -0.104
COc1cc(C2NC(=S)NC(C)=C2C(=O)c2ccccc2)ccc1O (stereo not given) | -0.116
O=C1CNC(=O)/C1=C\c1ccc(O)cc1 | 0.091
COc1cccc(-c2nnn(CCC(=O)O)n2)c1 | -0.297

Structure (SMILES) | z-score
Cc1ccc(SCCC(=O)OCC(=O)Nc2ncc(Cl)cc2Cl)cc1 | 0.0165
CN(C(=O)c1ccccc1NC(=O)C(F)(F)F)c1ccccc1 | -0.0699
COc1cccc(/C=N/NC(=O)CN(CCc2ccccc2)S(=O)(=O)c2ccc(NC(C)=O)cc2)c1 | -0.0629
CC(C)Sc1nc(N2CCOCC2)c2c(c1C#N)CC(C)(C)N(C)C2 | -0.402
COC(=O)C1C(O)=C(C=Nc2ccc(N)cc2)C(=O)CC1(C)C (stereo not given) | -0.549
CC(=O)c1cccc(NC(=O)C2CCCCC2)c1 | -0.342
CCCCC(=O)c1ccc(O)cc1O | 0.287
COCCNC(=O)CNC(=O)c1nn(-c2ccc(OC)c(Cl)c2)c(=O)c2ccccc12 | -0.158
Cc1ccc(NC(=O)CCC(=O)NNC(=O)COc2ccccc2)cc1C | 0.0392
O=C(Nc1ccc(Cl)cc1)NC1CCCCC1Cc1ccco1 (stereo not given) | active: 7.39
O=C(CCCOc1ccccc1)Nc1ccc2c(c1)OCCO2 | 0.0498
O=S1(=O)CCN2C(c3ccco3)=CSC2=N1 | 0.0459
O=C(Cc1cccs1)Nc1ccc(-c2nc3ccccc3[nH]2)cc1 | -0.182
Cc1cc(C)cc(NC(=O)Cn2c(=O)oc3cc(S(=O)(=O)N4CCC(C)CC4)ccc32)c1 | -0.0288
Cc1cc(=O)oc(C)c1C(=O)NCc1cccnc1 | -0.117
CCC(=O)Nc1nnc(Sc2ccc(N(C)C)cc2)s1 | 1.43
COC(=O)c1sccc1-c1ccc(C(=O)Nc2cccnc2)o1 | -1.4
Cc1ccc(/C=N/n2c(COc3ccccc3)n[nH]c2=S)s1 | active: 3.29
Cc1cccc(NCN2C(=O)c3ccccc3C2=O)c1 | 0.0948
O=C(CSc1nnc2c(Cl)cc(C(F)(F)F)cn12)NCc1ccc(F)cc1 | -0.0106
O=C(Nc1nccs1)c1sc2cc(Cl)ccc2c1Cl | 1.87
CCCNC(=O)CN(Cc1ccccc1F)S(=O)(=O)c1ccc(C)cc1 | -0.207

Structure (SMILES) | z-score
O=C(N/N=C/c1c(Cl)cccc1Cl)c1cccc(F)c1 | active: 3.05
Cc1ccc(C)c(-n2c(CNC(=O)c3ccco3)nnc2SCC(=O)N2CCc3ccccc32)c1 | 0.53
OC(CNCc1ccccc1)Cn1ccc2ccccc21 (stereo not given) | -0.0495
O=C(COC(=O)c1cnccn1)c1ccc2c(c1)CCCC2 | 0.408
C=CCOc1cccc(C2/C(=C(/O)c3ccc(F)cc3)C(=O)C(=O)N2CCN2CCOCC2)c1 (stereo not given) | -0.175
COc1ccc([N+](=O)[O-])cc1/C=N/NC(=O)CNC(=O)c1cccc(F)c1 | -0.267
CCOC(=O)COc1c(Cl)cc(C2NC(=S)NC(c3ccccc3)=C2C(C)=O)cc1OCC (stereo not given) | -0.187
CS(=O)(=O)N1CCN(C(=O)c2ccc(-c3ccccc3)cc2)CC1 | -0.241
Cc1ccc(C(=O)CN(C(=O)c2ccc(Cl)c(Cl)c2)N2C(=O)C3CCCCC3C2=O)cc1C (stereo not given) | -0.207
Cc1ccc(NC(=O)CSC2=NCCN2)cc1 | 0.214
OCCCc1nc2n(n1)C(c1ccccc1)C=C(c1ccc(F)cc1)N2 (stereo not given) | -1.33
Cc1csc(SCC(=O)Nc2c(C)n(C)n(-c3ccccc3)c2=O)n1 | -0.0217
CCOC(=O)c1[nH]c(C)c(C(=O)NC(C)CC)c1C (stereo not given) | -0.559
CS(=O)(=O)Nc1cccc(C2=NN(S(C)(=O)=O)C(c3ccc4c(c3)OCO4)C2)c1 (stereo not given) | -0.241
O=C(CN(CC1CCCO1)C(=O)CNS(=O)(=O)c1ccccc1)NCc1ccccc1 (stereo not given) | -0.25
Cc1cc(-c2ccc(Cl)s2)n[nH]1 | 0.0461
COc1cccc(NC(=O)C2CCCN2C(=O)Nc2cccc(F)c2)c1 (stereo not given) | 1.45
NC(=O)c1ccsc1NC(=O)c1ccc(S(=O)(=O)N2CCCCC2)cc1 | -0.52
CCC(NC(=O)N(Cc1ccccc1)Cc1ccc2c(c1)OCO2)(C(F)(F)F)C(F)(F)F | -0.904
COc1cc(/C=C/C(=O)OCC(=O)NC2CCS(=O)(=O)C2)ccc1O (stereo not given) | -0.135
COc1ccccc1CC(=O)Nc1cc2oc3ccccc3c2cc1OC | -0.189
CCOC(=O)c1nnn(-c2nonc2N)c1-c1ccccc1 | 0.111

Structure (SMILES) | z-score
CC(=O)Nc1ccc(S(=O)(=O)N[C@@H](C)C(=O)OCc2ccc(Cl)cc2)cc1 | -0.102
O=C(Nc1ccc(Cl)cc1)C1=Cc2cc(Cl)ccc2OC1 | -0.109
CCCC(c1nnnn1C1CCCC1)N1CCN(c2ccccc2F)CC1 (stereo not given) | -0.889
Cn1c(-c2ccc(C(C)(C)C)cc2)n[nH]c1=S | 1.92
Cc1nc(SC2C=CS(=O)(=O)C2)n[nH]1 (stereo not given) | 0.0743
Nc1c(C(=O)NCC2CCCO2)sc2nc3c(c(-c4ccco4)c12)CC/C3=C\c1ccco1 (stereo not given) | -0.197
Cn1c(=O)c2c(nc(Cl)n2Cc2ccc(Cl)c(Cl)c2)n(C)c1=O | -0.173
COc1ccc(C)cc1S(=O)(=O)N(CC(=O)Nc1cc([N+](=O)[O-])ccc1C)c1ccc(C)c(C)c1 | -0.906
Nc1nc(CSc2ncccn2)nc(Nc2ccccc2)n1 | -0.0959
Cc1ccc2c(c1)cc(CN(Cc1cccnc1)C(=O)NCc1ccccc1)c1nnnn12 | -0.309
COc1cc2c(cc1NC(=O)COC(=O)[C@@H](NS(=O)(=O)c1ccccc1)C(C)C)oc1ccccc12 | 0.22
CCSc1nc2cc(OC)c(OC)cc2c(=O)n1CC | -0.49
Cc1nn(-c2ccc3nnc(Br)n3n2)c(C)c1Br | -0.48
CCOC(=O)c1[nH]c(C)c(C(=O)NC)c1C | 0.651
O=C(Cn1cc(C(=O)c2cccs2)c2ccccc21)NC1CCCCC1 | -2.37
Cc1ccc2nc(SCC(=O)c3ccc4c(c3)OCO4)[nH]c2c1 | -0.84
COC(=O)c1cc2ccsc2n1Cc1cccc(F)c1 | -0.209
CCOC(=O)c1sc(NC(=O)c2ccc(S(=O)(=O)N(C)C)cc2)cc1C | -0.519
CC(C)CC(=O)Nc1ccccc1N1CCOCC1 | -0.0407
CCCCc1ccc(NC(=O)C2CCCO2)cc1 (stereo not given) | -0.173
Cc1ccc(C)c(NC(=O)CCC(=O)NNC(=O)c2cccs2)c1 | 0.00288
O=C(c1ccc(-c2ccccc2)cc1)N1CCCC1 | 0.357
